Laboratory results taken from PubChem BioAssay AID1347071 (National Center for Advancing Translational Sciences (NCATS), 2019).
Among all 410,000 compounds or so, about 260 (0.063%) were called active. Inconclusive results, whose numbers are uncertain, are shown with a selection of clear calls. Calls follow the shape of the dose curve; as a rule, active = well fitted activation curve with a large enough effect; inconclusive = small, poorly fitted or top-dose-only effect; inactive = no such curve, though single readings can be large or run the other way. No potency is given beside an inconclusive call; the fits are too rough.

Assay: qHTS for compounds that reverse cellular toxicity of Amyloid beta (A-beta) peptide in yeast: Primary Screen; also: nearly all actives have a fitted effect of over 55% in size
Conditions: yeast expressing A-beta42, growth rescue, OD600, 48 h; growth rescue: at 46.1 µM (top of the series), 0% DMSO, 100% iron-clioquinol control
Procedure, shortened: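 Yeast A-beta toxicity model in growth medium with pinned compounds, 48 h at 30 C; growth read as absorbance at 600 nm. Normalized to FeCl3/clioquinol equimolar mix (positive) and DMSO (negative).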
Potency is read from the fitted curve at half-maximal effect; tags tell the direction and shape of the fitted curve.

Compound | Potency
Cc1onc(-c2ccccc2)c1C(=O)NNC(=S)NC(=O)c1ccc(Cl)cc1Cl | inconclusive [activator, full curve, poor fit]
O=C(Nc1ccc2c(c1)OCCO2)c1cc2sccc2n1Cc1ccccc1 | inconclusive [activator, partial curve, poor fit]
CCc1ccc(CNC(=O)C2COc3ccccc3C2)cc1 (stereo unspecified) | inactive
S=c1nc(-c2cc(Cl)ccc2Cl)[nH][nH]1 | active: 17.8 µM
Cc1ccc(C)c(-c2nnc(NC(=O)c3ccco3)o2)c1 | inconclusive [activator, partial curve, poor fit]
COc1cc2c(cc1OC)-c1cc(Nc3ccccc3)nc(=O)n1CC2 | inactive
O=c1c2c(nc3cc(-c4ccc(F)cc4)[nH]n13)CCC2 | inactive
N#Cc1cccc(NC(=O)COC(=O)c2ccccc2Sc2ccccc2C#N)c1 | inconclusive [activator, partial curve, poor fit]
O=C(NCc1ccccc1)C1Nc2ccc(OC(F)(F)F)cc2C2C=CCC12 (stereo unspecified) | inconclusive [activator, single point]
COc1ccc(S(=O)(=O)N2CCCCCC2)cc1C(=O)Nc1ccc(C(=O)N(C)C)cc1 | inconclusive [activator, partial curve, poor fit]
O=c1c2ccsc2ncn1Cc1ccc(Cl)cc1 | inconclusive [activator, single point]
O=C1NN=C(c2ccc(Cl)cc2)CC1c1c[nH]c2ccccc12 (stereo unspecified) | inactive
OC(COCc1ccco1)CN1CCN(C(c2ccccc2)c2ccccc2)CC1 (stereo unspecified) | inconclusive [activator, single point]
CCn1c(SCc2nc(-c3cccs3)no2)nnc1-c1c[nH]c2ccccc12 | inactive
CC(C)(C)c1nnc(N/N=C/c2ccccc2O)n(N)c1=O | active: 11.2 µM
CC1(C)CC2CC(C)(CN2C(=O)c2ccc([N+](=O)[O-])cc2[N+](=O)[O-])C1 (stereo unspecified) | inconclusive [activator, partial curve]
O=C(Nc1nnc(-c2cccs2)o1)c1cccc(C(F)(F)F)c1 | active: 6.31 µM
COC(=O)c1ccc2nc(NC(=O)C3CCCCC3)sc2c1 | inconclusive [activator, single point]
COc1cn(CC(=O)Nc2ccc(C)cc2)c(CN2CCCCC2)cc1=O | inactive
c1ccc(-c2cc(-c3ccccc3)ncn2)cc1 | inactive
CCn1c(CSCc2ccc(Cl)cc2)n[nH]c1=S | inconclusive [activator, partial curve, poor fit]
Cc1nc(SCC(=O)Nc2cc(S(=O)(=O)N3CCOCC3)ccc2Cl)nc(C)c1C | inconclusive [activator, partial curve]
O=C(COc1ccccc1)Nc1nc(-c2cccs2)cs1 | inconclusive [activator, partial curve, poor fit]

Compound | Potency
C=CCn1c(N2CCCC2)nc2c1c(=O)[nH]c(=O)n2C | inactive
O=C(NCc1ccccc1Cl)c1cnc2n(c1=O)CCS2 | inactive
CCN(CC)S(=O)(=O)c1ccc(N/N=C(\C)c2ccc(OC)cc2O)nc1 | inconclusive [activator, single point]
O=C(Nc1nc2ccccc2s1)C1CC(=O)N(c2ccc(Br)cc2)C1 (stereo unspecified) | inconclusive [activator, partial curve, poor fit]
O=C(Nc1nc(-c2ccccn2)cs1)c1cc2ccccc2o1 | inactive
O=c1[nH]c(=O)n(C2CCCCCC2)c(O)c1C=NCc1ccc(F)cc1 | inconclusive [activator, partial curve, poor fit]
FC(F)(F)Oc1ccc(NC(=S)Nc2ccc(OC(F)(F)F)cc2)cc1 | inconclusive [activator, partial curve, poor fit]
O=C1/C(=C\c2ccc(O)c(O)c2)SC(=S)N1Cc1ccccc1 | inactive
Cc1nn(Cc2cccc(C(=O)NCC(C)C)c2)c(C)c1Br | inconclusive [activator, partial curve, poor fit]
Fc1ccc(CSc2nncn2NC/C=C/c2ccccc2)cc1 | inconclusive [activator, single point]
CCN(CC)c1ccc(NC(=O)C2CCN(S(=O)(=O)c3c(C)noc3/C=C/c3ccccc3F)CC2)c(C)c1 | inactive
C/C(N)=C(/C#N)C(=O)COC(=O)CSc1ccccc1 | inconclusive [activator, single point]
COc1ccc(OC)c(NS(=O)(=O)c2cccs2)c1 | inconclusive [activator, single point]
CCC1C(=O)C(C)(C)C(=O)OC1c1ccc([N+](=O)[O-])cc1 (stereo unspecified) | inactive
CN(C)c1ccc(C(=S)N2CCCCC2)cc1 | inconclusive [activator, partial curve, poor fit]
C[C@@H](NC(=O)[C@H]1O[C@@H](n2cnc3c(N)ncnc32)[C@H](O)[C@@H]1O)c1cccc2ccccc12 | inactive
COc1ccc(C(O)c2nc(-c3ccc(Cl)cc3)cs2)cc1 (stereo unspecified) | inconclusive [activator, partial curve, poor fit]
CCOC(=O)Cc1csc(NC(=O)COc2ccc(C)cc2)n1 | inconclusive [activator, partial curve, poor fit]
CC(Oc1cccc(Br)c1)C(=O)NNC(=O)c1ccccn1 (stereo unspecified) | inconclusive [activator, single point]
Cc1ccc(C)c(C(=O)COC(=O)c2cccc(N3C(=O)c4c(C)nc5ccccc5c4C3=O)c2)c1 | inactive
O=C(C1CCCN(S(=O)(=O)c2cccc3nsnc23)C1)N1CCN(c2ccccc2Cl)CC1 (stereo unspecified) | inactive
O=C(COC(=O)c1ccc(Br)cc1)NCc1ccc(F)cc1 | inactive
CC1SC(c2ccc(Cl)cc2Cl)NC1=O (stereo unspecified) | inconclusive [activator, full curve, poor fit]
